T1: RBFOX1 RRM RbFoxmut (Fox-RRM*) (Homo sapiens, UniProt Q9NWB1 109-208, R118D;E147R;N151S;E152T)
T1 sequence: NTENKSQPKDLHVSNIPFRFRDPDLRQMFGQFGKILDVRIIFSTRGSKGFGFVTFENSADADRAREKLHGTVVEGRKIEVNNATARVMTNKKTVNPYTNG

B1: UUUUGUC (DNA:RNA)
RNA: GGGAGACCGGAAUUCAGAUUGUCCUUUUGUCUUAAAUCCCGUCGUAGCCACCA
DNA 1: CAATCTGAATTCCGGTCTCCC
DNA 2: TGGTGGCTACGACGGGATT
B2: GGCCUCG (DNA:RNA)
RNA: GGGAGACCGGAAUUCAGAUUGUCCGGCCUCGUUAAAUCCCGUCGUAGCCACCA
DNA 1: CAATCTGAATTCCGGTCTCCC
DNA 2: TGGTGGCTACGACGGGATT
B3: GAAAUUA (DNA:RNA)
RNA: B2 RNA with G26A, C27A, C28A, C30U, G31A
DNA 1: CAATCTGAATTCCGGTCTCCC
DNA 2: TGGTGGCTACGACGGGATT
B4: CGCCUGA (DNA:RNA)
RNA: B2 RNA with G25C, C30G, G31A
DNA 1: CAATCTGAATTCCGGTCTCCC
DNA 2: TGGTGGCTACGACGGGATT
B5: UGGCAGC (DNA:RNA)
RNA: B2 RNA with G25U, C27G, U29A, C30G, G31C
DNA 1: CAATCTGAATTCCGGTCTCCC
DNA 2: TGGTGGCTACGACGGGATT
B6: UCUGUCC (DNA:RNA)
RNA: B1 RNA with U26C, U28G, G29U, U30C
DNA 1: CAATCTGAATTCCGGTCTCCC
DNA 2: TGGTGGCTACGACGGGATT
B7: UUGUUCU (DNA:RNA)
RNA: B1 RNA with U27G, G29U, U30C, C31U
DNA 1: CAATCTGAATTCCGGTCTCCC
DNA 2: TGGTGGCTACGACGGGATT
B8: AGUAUAC (DNA:RNA)
RNA: B2 RNA with G25A, C27U, C28A, C30A, G31C
DNA 1: CAATCTGAATTCCGGTCTCCC
DNA 2: TGGTGGCTACGACGGGATT
B9: UCUAAUU (DNA:RNA)
RNA: B1 RNA with U26C, U28A, G29A, C31U
DNA 1: CAATCTGAATTCCGGTCTCCC
DNA 2: TGGTGGCTACGACGGGATT
B10: CGAGACA (DNA:RNA)
RNA: B2 RNA with G25C, C27A, C28G, U29A, G31A
DNA 1: CAATCTGAATTCCGGTCTCCC
DNA 2: TGGTGGCTACGACGGGATT
B11: CUCUAUG (DNA:RNA)
RNA: B1 RNA with U25C, U27C, G29A, C31G
DNA 1: CAATCTGAATTCCGGTCTCCC
DNA 2: TGGTGGCTACGACGGGATT
B12: UGACGAU (DNA:RNA)
RNA: B2 RNA with G25U, C27A, U29G, C30A, G31U
DNA 1: CAATCTGAATTCCGGTCTCCC
DNA 2: TGGTGGCTACGACGGGATT
B13: CCGAUGU (DNA:RNA)
RNA: B2 RNA with G25C, G26C, C27G, C28A, C30G, G31U
DNA 1: CAATCTGAATTCCGGTCTCCC
DNA 2: TGGTGGCTACGACGGGATT
B14: AUUCAUU (DNA:RNA)
RNA: B1 RNA with U25A, U28C, G29A, C31U
DNA 1: CAATCTGAATTCCGGTCTCCC
DNA 2: TGGTGGCTACGACGGGATT
B15: CUCUCGA (DNA:RNA)
RNA: B1 RNA with U25C, U27C, G29C, U30G, C31A
DNA 1: CAATCTGAATTCCGGTCTCCC
DNA 2: TGGTGGCTACGACGGGATT
B16: AGUGAAA (DNA:RNA)
RNA: B2 RNA with G25A, C27U, C28G, U29A, C30A, G31A
DNA 1: CAATCTGAATTCCGGTCTCCC
DNA 2: TGGTGGCTACGACGGGATT
B17: ACUGGCU (DNA:RNA)
RNA: B1 RNA with U25A, U26C, U28G, U30C, C31U
DNA 1: CAATCTGAATTCCGGTCTCCC
DNA 2: TGGTGGCTACGACGGGATT
B18: AGCAUAG (DNA:RNA)
RNA: B2 RNA with G25A, C28A, C30A
DNA 1: CAATCTGAATTCCGGTCTCCC
DNA 2: TGGTGGCTACGACGGGATT
B19: GGUGACG (DNA:RNA)
RNA: B2 RNA with C27U, C28G, U29A
DNA 1: CAATCTGAATTCCGGTCTCCC
DNA 2: TGGTGGCTACGACGGGATT
B20: CCGGUGG (DNA:RNA)
RNA: B2 RNA with G25C, G26C, C27G, C28G, C30G
DNA 1: CAATCTGAATTCCGGTCTCCC
DNA 2: TGGTGGCTACGACGGGATT
B21: AUAGUAU (DNA:RNA)
RNA: B2 RNA with G25A, G26U, C27A, C28G, C30A, G31U
DNA 1: CAATCTGAATTCCGGTCTCCC
DNA 2: TGGTGGCTACGACGGGATT
B22: UUCUUUG (DNA:RNA)
RNA: B1 RNA with U27C, G29U, C31G
DNA 1: CAATCTGAATTCCGGTCTCCC
DNA 2: TGGTGGCTACGACGGGATT
B23: AAGGCAA (DNA:RNA)
RNA: GGGAGACCGGAAUUCAGAUUGUCCAAGGCAAUUAAAUCCCGUCGUAGCCACCA
DNA 1: CAATCTGAATTCCGGTCTCCC
DNA 2: TGGTGGCTACGACGGGATT
B24: UCAGGCU (DNA:RNA)
RNA: B1 RNA with U26C, U27A, U28G, U30C, C31U
DNA 1: CAATCTGAATTCCGGTCTCCC
DNA 2: TGGTGGCTACGACGGGATT
B25: AGAAGCU (DNA:RNA)
RNA: B2 RNA with G25A, C27A, C28A, U29G, G31U
DNA 1: CAATCTGAATTCCGGTCTCCC
DNA 2: TGGTGGCTACGACGGGATT
B26: UAUGCUU (DNA:RNA)
RNA: B23 RNA with A25U, G27U, A30U, A31U
DNA 1: CAATCTGAATTCCGGTCTCCC
DNA 2: TGGTGGCTACGACGGGATT
B27: CCAAACA (DNA:RNA)
RNA: B23 RNA with A25C, A26C, G27A, G28A, C29A, A30C
DNA 1: CAATCTGAATTCCGGTCTCCC
DNA 2: TGGTGGCTACGACGGGATT
B28: AGCACGU (DNA:RNA)
RNA: B23 RNA with A26G, G27C, G28A, A30G, A31U
DNA 1: CAATCTGAATTCCGGTCTCCC
DNA 2: TGGTGGCTACGACGGGATT
B29: AUCCGGA (DNA:RNA)
RNA: B23 RNA with A26U, G27C, G28C, C29G, A30G
DNA 1: CAATCTGAATTCCGGTCTCCC
DNA 2: TGGTGGCTACGACGGGATT
B30: UUUGACG (DNA:RNA)
RNA: B1 RNA with U28G, G29A, U30C, C31G
DNA 1: CAATCTGAATTCCGGTCTCCC
DNA 2: TGGTGGCTACGACGGGATT
B31: UGGAAUG (DNA:RNA)
RNA: B2 RNA with G25U, C27G, C28A, U29A, C30U
DNA 1: CAATCTGAATTCCGGTCTCCC
DNA 2: TGGTGGCTACGACGGGATT

Changes are numbered by the printed parent chain; changes in the protein carry UniProt numbers. The list shows a part of the results.

In the test the target is T1, RBFOX1 RRM RbFoxmut (Fox-RRM*). The experiment in a line: EMSA; HiTS-Eq, 1 nM pool, 10 min; buffer printed only for the single-RNA assays: 10 mM Tris pH 7.5, 150 mM NaCl, 3.4 mM EDTA, 0.001% NP-40, 30 C. Particulars: tags: His6 N-terminal (pET28a); label: 5' 32P. Summed up: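 Purified RbFox RRM, wild type or mutant, was incubated for 10 min in 50 µL with 1 nM of a 5′-radiolabelled RNA pool carrying 7 randomized nucleotides, whose flanks were annealed to DNA oligonucleotides, over a series of increasing protein concentrations. Unbound RNA was resolved on 8% native PAGE, cut out, reverse-transcribed, barcoded by PCR and sequenced on an Illumina HiSeq 2500. Relative association constants were derived from changes in read counts for each RNA species versus the control reaction and normalised to the cognate motif.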
On the technique in general: In EMSA bound probe runs differently from free probe, usually more slowly.
Turning to B1, the binding signal was 0.229 KA relative to UGCAUGU. As to B2, the binding signal is 0.228 KA relative to UGCAUGU. On to B3, for which the binding signal was 0.0829 KA relative to UGCAUGU. As to B4, the binding signal was 0.105 KA relative to UGCAUGU. As for B5, the binding signal is 0.0718 KA relative to UGCAUGU. For B6, the binding signal was 0.0789 KA relative to UGCAUGU. B7: the binding signal was 0.113 KA relative to UGCAUGU.

For the molecule B8, the binding signal was 0.116 KA relative to UGCAUGU. Consider B9, for which the binding signal is 0.0829 KA relative to UGCAUGU.

Regarding B10, the binding signal was 0.0616 KA relative to UGCAUGU. The value for B11 was 0.147 KA relative to UGCAUGU; that for B12 was 0.0625 KA relative to UGCAUGU. For B13, the binding signal was 0.103 KA relative to UGCAUGU. For the molecule B14, the binding signal was 0.0922 KA relative to UGCAUGU. As to B15, the binding signal was 0.0774 KA relative to UGCAUGU.

As to B16, the binding signal is 0.095 KA relative to UGCAUGU.

As for B17, the binding signal was 0.125 KA relative to UGCAUGU. B18: the binding signal was 0.106 KA relative to UGCAUGU. The value for B19 was 0.116 KA relative to UGCAUGU; that for B20 was 0.0753 KA relative to UGCAUGU; that for B21 was 0.169 KA relative to UGCAUGU. The same measure for B22: 0.128 KA relative to UGCAUGU; for B23: 0.061 KA relative to UGCAUGU; for B24: 0.127 KA relative to UGCAUGU. On to B25, for which the binding signal is 0.104 KA relative to UGCAUGU.

For the molecule B26, the binding signal was 0.0987 KA relative to UGCAUGU.

As to B27, the binding signal was 0.0719 KA relative to UGCAUGU. Regarding B28, the binding signal is 0.154 KA relative to UGCAUGU. The value for B29 was 0.0548 KA relative to UGCAUGU; that for B30 was 0.0801 KA relative to UGCAUGU; that for B31 was 1.66 KA relative to UGCAUGU.

The values above are taken from PMC9911399, “Two distinct binding modes provide the RNA-binding protein RbFox with extraordinary sequence specificity”.
